At least one structure is not confirmed: it was looked up by name or label, or the drawing left a doubt. Numbered stars: 1 amine (or outer) side, 2 acyl side, 3 side chain; on linkers, the order of the positions; unused ones are H or OH. Side chains are listed from the residue outwards. Peptide text beside a SMILES is read from it. * marks the point of attachment. C18 diacid = O=C(O)CCCCCCCCCCCCCCCCC(=O)*; C16 diacid = O=C(O)CCCCCCCCCCCCCCC(=O)*; γGlu = O=C(O)[C@H](CCC(=O)[*:2])N[*:1]; AEEA = NCCOCCOCC(=O)O
Assay: Assay (II) ThT fibrillation assay for physical stability
Format: physicochemical
Conditions: pH 7.5
With `CC(C)C[C@H](NC(=O)[C@H](Cc1c[nH]c2ccccc12)NC(=O)[C@H](CCCCNC(=O)CC[C@H](NC(=O)CC[C@H](NC(=O)COCCOCCNC(=O)COCCOCCNC(=O)CC[C@H](NC(=O)CCCCCCCCCCCCCCC(=O)O)C(=O)O)C(=O)O)C(=O)O)NC(=O)[C@@H](NC(=O)[C@H](Cc1ccccc1)NC(=O)[C@H](CC(=O)O)NC(=O)[C@H](CCC(N)=O)NC(=O)[C@H](C)NC(=O)[C@H](CCCNC(=N)N)NC(=O)[C@H](CCCNC(=N)N)NC(=O)[C@@H](NC(=O)[C@H](CC(=O)O)NC(=O)[C@H](CC(C)C)NC(=O)[C@H](Cc1ccc(O)cc1)NC(=O)[C@H](CCCCN)NC(=O)[C@H](CO)NC(=O)[C@H](Cc1ccc(O)cc1)NC(=O)[C@H](CC(=O)O)NC(=O)[C@H](CO)NC(=O)[C@@H](NC(=O)[C@H](Cc1ccccc1)NC(=O)[C@@H](NC(=O)CNC(=O)[C@H](CCC(N)=O)NC(=O)[C@H](CO)NC(=O)[C@@H](N)Cc1c[nH]cn1)[C@@H](C)O)[C@@H](C)O)[C@@H](C)O)C(C)C)C(=O)N[C@@H](CC(C)C)C(=O)N[C@@H](CO)C(=O)N[C@H](C(=O)O)[C@@H](C)O` [Example 81, N^ε24-[(4S)-4-carboxy-4-[[(4S)-4-carboxy-4-[[2-[2-[2-[[2-[2-[2-[[(4S)-4-carboxy-4-(15-carboxypentadecanoylamino)butanoyl]amino]ethoxy]ethoxy]acetyl]amino]ethoxy]ethoxy]acetyl]amino]butanoyl]amino]butanoyl]-[Thr16,Lys24,Leu27,Ser28]-Glucagon] the “ThT assay [Lagtime]” value was 45 h.
For `CC(C)C[C@H](NC(=O)[C@H](CC(=O)O)NC(=O)[C@H](CC(C)C)NC(=O)[C@H](Cc1ccc(O)cc1)NC(=O)[C@H](CCCNC(=N)N)NC(=O)[C@H](CO)NC(=O)[C@H](Cc1ccc(O)cc1)NC(=O)[C@H](CC(=O)O)NC(=O)[C@H](CO)NC(=O)[C@@H](NC(=O)[C@H](Cc1ccccc1)NC(=O)[C@@H](NC(=O)CNC(=O)[C@H](CCC(N)=O)NC(=O)[C@H](CO)NC(=O)[C@@H](N)Cc1c[nH]cn1)[C@@H](C)O)[C@@H](C)O)C(=O)N[C@@H](CCCNC(=N)N)C(=O)N[C@@H](CCCNC(=N)N)C(=O)N[C@@H](C)C(=O)N[C@@H](CCC(N)=O)C(=O)N[C@@H](CC(=O)O)C(=O)N[C@@H](Cc1ccccc1)C(=O)N[C@H](C(=O)N[C@@H](CCCCNC(=O)CC[C@H](NC(=O)CC[C@H](NC(=O)CC[C@H](NC(=O)COCCOCCNC(=O)COCCOCCNC(=O)CC[C@H](NC(=O)CCCCCCCCCCCCCCCCC(=O)O)C(=O)O)C(=O)O)C(=O)O)C(=O)O)C(=O)N[C@@H](Cc1c[nH]c2ccccc12)C(=O)N[C@@H](CC(C)C)C(=O)N[C@@H](CC(C)C)C(=O)N[C@@H](CO)C(=O)N[C@H](C(=O)O)[C@@H](C)O)C(C)C` [Example 45, N^ε24-[(4S)-4-carboxy-4-[[(4S)-4-carboxy-4-[[(4S)-4-carboxy-4-[[2-[2-[2-[[2-[2-[2-[[(4S)-4-carboxy-4-(17-carboxyheptadecanoylamino)butanoyl]amino]ethoxy]ethoxy]acetyl]amino]ethoxy]ethoxy]acetyl]amino]butanoyl]amino]butanoyl]amino]butanoyl]-[Arg12,Leu16,Lys24,Leu27,Ser28]-Glucagon] (H-HSQGTFTSDYSRYLDLRRAQDFVK([γGlu-γGlu-γGlu-AEEA-AEEA-γGlu-C18 diacid])WLLST-OH), the “ThT assay [Lagtime]” value was 14 h.
With `CC(C)C[C@H](NC(=O)[C@H](Cc1c[nH]c2ccccc12)NC(=O)[C@H](CCCCNC(=O)CC[C@H](NC(=O)COCCOCCNC(=O)COCCOCCNC(=O)CC[C@H](NC(=O)CCCCCCCCCCCCCCCCC(=O)O)C(=O)O)C(=O)O)NC(=O)[C@@H](NC(=O)[C@H](Cc1ccccc1)NC(=O)[C@H](CCC(=O)O)NC(=O)[C@H](CCC(N)=O)NC(=O)[C@H](C)NC(=O)[C@H](CCCNC(=N)N)NC(=O)[C@H](CCCNC(=N)N)NC(=O)[C@@H](NC(=O)[C@H](CC(=O)O)NC(=O)[C@H](CC(C)C)NC(=O)[C@H](Cc1ccc(O)cc1)NC(=O)[C@H](CCCCN)NC(=O)[C@H](CO)NC(=O)[C@H](Cc1ccc(O)cc1)NC(=O)[C@H](CC(=O)O)NC(=O)[C@H](CO)NC(=O)[C@@H](NC(=O)[C@H](Cc1ccccc1)NC(=O)[C@@H](NC(=O)CNC(=O)[C@H](CCC(N)=O)NC(=O)[C@H](CO)NC(=O)[C@@H](N)Cc1c[nH]cn1)[C@@H](C)O)[C@@H](C)O)[C@@H](C)O)C(C)C)C(=O)N[C@@H](CC(C)C)C(=O)N[C@@H](CC(N)=O)C(=O)N[C@H](C(=O)O)C(C)C` [Example 36, N^ε24-[(4S)-4-carboxy-4-[[2-[2-[2-[[2-[2-[2-[[(4S)-4-carboxy-4-(17-carboxyheptadecanoylamino)butanoyl]amino]ethoxy]ethoxy]acetyl]amino]ethoxy]ethoxy]acetyl]amino]butanoyl]-[Thr16,Glu21,Lys24,Leu27,Val29]-Glucagon] (H-HSQGTFTSDYSKYLDTRRAQEFVK([γGlu-AEEA-AEEA-γGlu-C18 diacid])WLLNV-OH) the “ThT assay [Lagtime]” value was 39 h.
For `CC(C)C[C@H](NC(=O)[C@H](Cc1ccc(O)cc1)NC(=O)[C@H](CCCNC(=N)N)NC(=O)[C@H](CO)NC(=O)[C@H](Cc1ccc(O)cc1)NC(=O)[C@H](CC(=O)O)NC(=O)[C@H](CO)NC(=O)[C@@H](NC(=O)[C@H](Cc1ccccc1)NC(=O)[C@@H](NC(=O)CNC(=O)[C@H](CCC(N)=O)NC(=O)[C@H](CO)NC(=O)[C@@H](N)Cc1c[nH]cn1)[C@@H](C)O)[C@@H](C)O)C(=O)N[C@@H](CC(=O)O)C(=O)N[C@@H](C)C(=O)N[C@@H](CCCNC(=N)N)C(=O)N[C@@H](CCCNC(=N)N)C(=O)N[C@@H](C)C(=O)N[C@@H](CCC(N)=O)C(=O)N[C@@H](CC(=O)O)C(=O)N[C@@H](Cc1ccccc1)C(=O)N[C@H](C(=O)N[C@@H](CCCCNC(=O)CC[C@H](NC(=O)CC[C@H](NC(=O)CC[C@H](NC(=O)CCCCCCCCCCCCCCC(=O)O)C(=O)O)C(=O)O)C(=O)O)C(=O)N[C@@H](Cc1c[nH]c2ccccc12)C(=O)N[C@@H](CC(C)C)C(=O)N[C@@H](CC(C)C)C(=O)N[C@@H](CO)C(=O)N[C@H](C(=O)O)[C@@H](C)O)C(C)C` [Example 72, N^ε24-[(4S)-4-carboxy-4-[[(4S)-4-carboxy-4-[[(4S)-4-carboxy-4-(15-carboxypentadecanoylamino)butanoyl]amino]butanoyl]amino]butanoyl]-[Arg12,Ala16,Lys24,Leu27,Ser28]-Glucagon] (H-HSQGTFTSDYSRYLDARRAQDFVK([γGlu-γGlu-γGlu-C16 diacid])WLLST-OH), the “ThT assay [Lagtime]” value was 7 h.

Reference: patent publication US9486506B2 (Novo Nordisk A/S, priority 2011, dated 2016)
